Results reported in PubChem BioAssay AID624202 (National Center for Advancing Translational Sciences (NCATS), 2012).
Screen size: about 380,000 compounds; about 4,000 (1.1%) were called active. Roughly 3% stayed inconclusive and do not appear here. The call rests on the fitted dose curve; in most records, active means well fitted activation curve with a large enough effect; inconclusive means small, poorly fitted or top-dose-only effect; inactive means no such curve, though single readings can be large or run the other way. Where a structure was tested more than once in an assay, its records may differ in their call. For part of its entries the source gives two or more results. Only these are listed. An entry can have further records. The values listed for one entry are repeats across runs, samples, wells, individuals or studies. Records carry a tag for their origin. Letters count within one entry.
Potency means the concentration at half of the fitted maximal effect.

Assay: qHTS Assay to Identify Small Molecule Activators of BRCA1 Expression; further: nearly all actives have a fitted effect of over 80% in size
Settings: MCF7-BRCA1-FFLuc reporter, luminescence, 48 h; series mostly up to 46.1 µM
Excerpt: Functionally, BRCA1 has been implicated in a wide array of cellular activities, including DNA damage repair, cell-cycle checkpoint control, growth inhibition, apoptosis, transcriptional regulation, chromatin remodeling, protein ubiquitylation, and mammary stem cell self-renewal and differentiation. Reduction in BRCA1 levels is associated with an increase in tumor growth and resistance to anti-estrogenic agents, such as tamoxifen, while an increase in BRCA1 expression leads to cell growth arrest and apoptosis. […] The frequent loss of BRCA1 expression in invasive breast cancers in the absence of somatic mutation has been attributed to numerous mechanisms, including hypermethylation of the BRCA1 promoter, exaggerated ubiquitylation of BRCA1 protein, and improper intracellular localization. […]
5microl of MCF7-BRCA1-FFLuc cell suspension (400 cells/microl in phenol-red free MEM) are dispensed into Greiner white solid bottom 1536-well assay plates, yielding a final well density of 2000 cells/well. […] The NCGC in-house luciferase substrate reagent, Buglite, is then added (2.5microl) and plates incubated for 15 minutes, before being transferred to a ViewLux high-throughput CCD imager (PerkinElmer) wherein single end-point measurements of luminescence are acquired using a clear filter. […]
With `CCc1nn(CCCC(=O)NC(C)c2ccccc2)c(=O)c2cc3occc3n12` (stereo unspecified) the Potency was “active: 3.16 µM [sample A] and inactive [sample B]”.
